Reference: the supplement of paper PMC9151546
Repeats are few or missing, and single values can be far off.

Key:
CHO-K1 [1] = test: relative survival (nuclei to bead ratio vs DMSO control) (% of vehicle control); higher = more surviving cells
Method: (§1)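 Flow-cytometric in vitro micronucleus assay (Litron MicroFlow) in CHO-K1 cells in 96-well plates, 19 concentrations (4.5-200 µM, n=1 per concentration). Without S9, cells were exposed for 24 h and sampled at 48 h. With Aroclor 1254-induced rat liver S9, cells were exposed for 3-4 h and sampled at 27-28 h. Read-outs are %MN and %hypodiploid nuclei relative to nucleated events, and relative survival as the nuclei-to-bead ratio versus the 1% DMSO vehicle control (x100).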

CHO-K1 [2] = test: hypodiploid nuclei frequency (% of nucleated events); higher = more hypodiploid events (aneugenic)
Method: as §1

CHO-K1 [3] = test: micronucleus frequency (% of nucleated events); higher = more micronuclei (genotoxic)
[4] = concentration: 4.5 (µM), S9 metabolic activation: with S9, exposure time: 3-4 hours
[5] = concentration: 4.5 (µM), S9 metabolic activation: without S9, exposure time: 24 hours
[6] = concentration: 5.63 (µM), S9 metabolic activation: with S9, exposure time: 3-4 hours
[7] = concentration: 5.63 (µM), S9 metabolic activation: without S9, exposure time: 24 hours
[8] = concentration: 7.04 (µM), S9 metabolic activation: with S9, exposure time: 3-4 hours
[9] = concentration: 7.04 (µM), S9 metabolic activation: without S9, exposure time: 24 hours
[10] = concentration: 8.8 (µM), S9 metabolic activation: with S9, exposure time: 3-4 hours
[11] = concentration: 8.8 (µM), S9 metabolic activation: without S9, exposure time: 24 hours
[12] = concentration: 11 (µM), S9 metabolic activation: with S9, exposure time: 3-4 hours
[13] = concentration: 11 (µM), S9 metabolic activation: without S9, exposure time: 24 hours
[14] = concentration: 13.7 (µM), S9 metabolic activation: with S9, exposure time: 3-4 hours
[15] = concentration: 13.7 (µM), S9 metabolic activation: without S9, exposure time: 24 hours
[16] = concentration: 17.2 (µM), S9 metabolic activation: with S9, exposure time: 3-4 hours
[17] = concentration: 17.2 (µM), S9 metabolic activation: without S9, exposure time: 24 hours
[18] = concentration: 21.5 (µM), S9 metabolic activation: with S9, exposure time: 3-4 hours
[19] = concentration: 21.5 (µM), S9 metabolic activation: without S9, exposure time: 24 hours
[20] = concentration: 26.8 (µM), S9 metabolic activation: with S9, exposure time: 3-4 hours
[21] = concentration: 26.8 (µM), S9 metabolic activation: without S9, exposure time: 24 hours
[22] = concentration: 33.6 (µM), S9 metabolic activation: with S9, exposure time: 3-4 hours
[23] = concentration: 33.6 (µM), S9 metabolic activation: without S9, exposure time: 24 hours
[24] = concentration: 41.9 (µM), S9 metabolic activation: with S9, exposure time: 3-4 hours
[25] = concentration: 41.9 (µM), S9 metabolic activation: without S9, exposure time: 24 hours
[26] = concentration: 52.4 (µM), S9 metabolic activation: with S9, exposure time: 3-4 hours
[27] = concentration: 52.4 (µM), S9 metabolic activation: without S9, exposure time: 24 hours
[28] = concentration: 65.5 (µM), S9 metabolic activation: with S9, exposure time: 3-4 hours
[29] = concentration: 65.5 (µM), S9 metabolic activation: without S9, exposure time: 24 hours
[30] = concentration: 81.9 (µM), S9 metabolic activation: with S9, exposure time: 3-4 hours
[31] = concentration: 81.9 (µM), S9 metabolic activation: without S9, exposure time: 24 hours
[32] = concentration: 102 (µM), S9 metabolic activation: without S9, exposure time: 24 hours
[33] = concentration: 128 (µM), S9 metabolic activation: without S9, exposure time: 24 hours
[34] = concentration: 160 (µM), S9 metabolic activation: without S9, exposure time: 24 hours
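Throughout, for hypodiploid nuclei frequency (% of nucleated events): hypodiploid nuclei gated on a flow cytometer with 488 nm excitation after SYTOX Green staining, cultures at 37 °C, positive controls vinblastine without S9 and cyclophosphamide with S9.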
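Throughout, for micronucleus frequency (% of nucleated events): cells lysed with nuclei stained by SYTOX Green, then micronucleus-gated events counted against nucleated events by flow cytometry with 488 nm excitation.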
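Throughout, for relative survival (nuclei to bead ratio vs DMSO control): Lysed-cell nuclei stained with SYTOX Green and counted against counting beads by flow cytometry at 488 nm excitation, with vinblastine (no S9) and cyclophosphamide (plus S9) as positive controls.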

Work on Cc1c(C)c2c(c(C)c1O)CCC(C)(COc1ccc(CC3SC(=O)NC3=O)cc1)O2 (configuration not stated) [Troglitazone] yielded a relative survival (CHO-K1 [1]; [4]) of 135, a relative survival (CHO-K1 [1]; [5]) of 121 and a relative survival (CHO-K1 [1]; [6]) of 155. The relative survival (CHO-K1 [1]; [7]) was 132, the relative survival (CHO-K1 [1]; [8]) was 136 and the relative survival (CHO-K1 [1]; [9]) was 113. The relative survival (CHO-K1 [1]; [10]) was 125, the relative survival (CHO-K1 [1]; [11]) was 112 and the relative survival (CHO-K1 [1]; [12]) was 134. The relative survival (CHO-K1 [1]; [13]) was 120, the relative survival (CHO-K1 [1]; [14]) was 134 and the relative survival (CHO-K1 [1]; [15]) was 104. For the same compound, the relative survival (CHO-K1 [1]; [16]) was 121, the relative survival (CHO-K1 [1]; [17]) was 95.1 and the relative survival (CHO-K1 [1]; [18]) was 127. For the same compound, the relative survival (CHO-K1 [1]; [19]) was 91.8, the relative survival (CHO-K1 [1]; [20]) was 125 and the relative survival (CHO-K1 [1]; [21]) was 79.7. The relative survival (CHO-K1 [1]; [22]) was 127, the relative survival (CHO-K1 [1]; [23]) was 76 and the relative survival (CHO-K1 [1]; [24]) was 114. For the same compound, the relative survival (CHO-K1 [1]; [25]) was 76.5, the relative survival (CHO-K1 [1]; [26]) was 137 and the relative survival (CHO-K1 [1]; [27]) was 66.2. For the same compound, the relative survival (CHO-K1 [1]; [28]) was 113, the relative survival (CHO-K1 [1]; [29]) was 65.6 and the relative survival (CHO-K1 [1]; [30]) was 115. For the same compound, the relative survival (CHO-K1 [1]; [31]) was 62, the relative survival (CHO-K1 [1]; concentration: 102 (µM), S9 metabolic activation: with S9, exposure time: 3-4 hours) was 36.1 and the relative survival (CHO-K1 [1]; [32]) was 57.9. The relative survival (CHO-K1 [1]; concentration: 128 (µM), S9 metabolic activation: with S9, exposure time: 3-4 hours) was 13, the relative survival (CHO-K1 [1]; [33]) was 47.1 and the relative survival (CHO-K1 [1]; [34]) was 41.4. It also gave a relative survival (CHO-K1 [1]; concentration: 200 (µM), S9 metabolic activation: with S9, exposure time: 3-4 hours) of 0.2, a relative survival (CHO-K1 [1]; concentration: 200 (µM), S9 metabolic activation: without S9, exposure time: 24 hours) of 33.9 and a hypodiploid nuclei frequency (CHO-K1 [2]; [4]) of 0.34%. The hypodiploid nuclei frequency (CHO-K1 [2]; [5]) was 0.66%, the hypodiploid nuclei frequency (CHO-K1 [2]; [6]) was 0.3% and the hypodiploid nuclei frequency (CHO-K1 [2]; [7]) was 0.32%. For the same compound, the hypodiploid nuclei frequency (CHO-K1 [2]; [8]) was 0.34%, the hypodiploid nuclei frequency (CHO-K1 [2]; [9]) was 0.6% and the hypodiploid nuclei frequency (CHO-K1 [2]; [10]) was 0.34%. The hypodiploid nuclei frequency (CHO-K1 [2]; [11]) was 0.7%, the hypodiploid nuclei frequency (CHO-K1 [2]; [12]) was 0.1% and the hypodiploid nuclei frequency (CHO-K1 [2]; [13]) was 0.6%. It also gave a hypodiploid nuclei frequency (CHO-K1 [2]; [14]) of 0.2%, a hypodiploid nuclei frequency (CHO-K1 [2]; [15]) of 0.78% and a hypodiploid nuclei frequency (CHO-K1 [2]; [16]) of 0.28%. The hypodiploid nuclei frequency (CHO-K1 [2]; [17]) was 0.82%, the hypodiploid nuclei frequency (CHO-K1 [2]; [18]) was 0.2% and the hypodiploid nuclei frequency (CHO-K1 [2]; [19]) was 0.98%. It also gave a hypodiploid nuclei frequency (CHO-K1 [2]; [20]) of 0.16%, a hypodiploid nuclei frequency (CHO-K1 [2]; [21]) of 0.98% and a hypodiploid nuclei frequency (CHO-K1 [2]; [22]) of 0.52%. For the same compound, the hypodiploid nuclei frequency (CHO-K1 [2]; [23]) was 1.22%, the hypodiploid nuclei frequency (CHO-K1 [2]; [24]) was 0.34% and the hypodiploid nuclei frequency (CHO-K1 [2]; [25]) was 1.06%. For the same compound, the hypodiploid nuclei frequency (CHO-K1 [2]; [26]) was 0.36%, the hypodiploid nuclei frequency (CHO-K1 [2]; [27]) was 1.14% and the hypodiploid nuclei frequency (CHO-K1 [2]; [28]) was 0.28%. The hypodiploid nuclei frequency (CHO-K1 [2]; [29]) was 1.34%, the hypodiploid nuclei frequency (CHO-K1 [2]; [30]) was 0.32% and the hypodiploid nuclei frequency (CHO-K1 [2]; [31]) was 1.06%. The hypodiploid nuclei frequency (CHO-K1 [2]; [32]) was 0.84%, the hypodiploid nuclei frequency (CHO-K1 [2]; [33]) was 0.92% and the hypodiploid nuclei frequency (CHO-K1 [2]; [34]) was 1.06%. For the same compound, the micronucleus frequency (CHO-K1 [3]; [4]) was 1.54%, the micronucleus frequency (CHO-K1 [3]; [5]) was 2.36% and the micronucleus frequency (CHO-K1 [3]; [6]) was 1.92%. The micronucleus frequency (CHO-K1 [3]; [7]) was 2.18%, the micronucleus frequency (CHO-K1 [3]; [8]) was 1.52% and the micronucleus frequency (CHO-K1 [3]; [9]) was 1.58%. For the same compound, the micronucleus frequency (CHO-K1 [3]; [10]) was 1.58%, the micronucleus frequency (CHO-K1 [3]; [11]) was 2.22% and the micronucleus frequency (CHO-K1 [3]; [12]) was 1.56%. For the same compound, the micronucleus frequency (CHO-K1 [3]; [13]) was 2.4%, the micronucleus frequency (CHO-K1 [3]; [14]) was 2.22% and the micronucleus frequency (CHO-K1 [3]; [15]) was 1.88%. The micronucleus frequency (CHO-K1 [3]; [16]) was 1.52%, the micronucleus frequency (CHO-K1 [3]; [17]) was 2.88% and the micronucleus frequency (CHO-K1 [3]; [18]) was 1.48%. It also gave a micronucleus frequency (CHO-K1 [3]; [19]) of 3.7%, a micronucleus frequency (CHO-K1 [3]; [20]) of 1.84% and a micronucleus frequency (CHO-K1 [3]; [21]) of 2.96%. It also gave a micronucleus frequency (CHO-K1 [3]; [22]) of 2.58%, a micronucleus frequency (CHO-K1 [3]; [23]) of 2.88% and a micronucleus frequency (CHO-K1 [3]; [24]) of 1.56%. It also gave a micronucleus frequency (CHO-K1 [3]; [25]) of 2.7%, a micronucleus frequency (CHO-K1 [3]; [26]) of 1.96% and a micronucleus frequency (CHO-K1 [3]; [27]) of 2.82%. It also gave a micronucleus frequency (CHO-K1 [3]; [28]) of 1.92%, a micronucleus frequency (CHO-K1 [3]; [29]) of 3.68% and a micronucleus frequency (CHO-K1 [3]; [30]) of 2.4%. The micronucleus frequency (CHO-K1 [3]; [31]) was 3.62%, the micronucleus frequency (CHO-K1 [3]; [32]) was 2.18% and the micronucleus frequency (CHO-K1 [3]; [33]) was 2.36%. The micronucleus frequency (CHO-K1 [3]; [34]) was 2.28%.
